Data from US11639368B2, “Method for preventing and treating hyperpermeability” (Apeptico Forschung UND E[…], priority 2009, dated 2023).

Test system: human endothelial cells of the lungs
Assay: Toxin-induced hyperpermeability, transendothelial electric resistance (ECIS), endothelial cells
Type: cell-based
Settings: 125 ng/ml of pneumolysin, 50 μg/ml of peptide

**Q.** How did the “hyperpermeability caused by the toxin pneumolysin (electric resistance)” value turn out when `C[C@@H]1NC(=O)CNC(=O)[C@H](CCC(=O)O)NC(=O)[C@@H]2CCCN2C(=O)[C@H]([C@@H](C)O)NC(=O)[C@H](CCC(=O)O)NC(=O)[C@H](CCCNC(=N)N)NC(=O)[C@H](CCC(N)=O)NC(=O)CNC(=O)[C@@H](N)CSSC[C@@H](C(=O)O)NC(=O)[C@H](Cc2ccc(O)cc2)NC(=O)[C@H](Cc2c[nH]c3ccccc23)NC(=O)[C@@H]2CCCN2C(=O)[C@H](CCCCN)NC(=O)[C@H](C)NC(=O)[C@H](CCC(=O)O)NC1=O` [peptide SEQ ID No. 1, CGQRETPEGAEAKPWYC] was run?
**A.** The value was “inhibited”.
